Reference: PMC4336329 (PLoS ONE, 2015)
The campaign covered roughly 310,000 compounds. About 2,200 (0.71%) showed an effect of 50% or more. Effects have a minus sign here. This is one part of the list.

Target: human ether-à-go-go-related gene (hERG) potassium channel (human, UniProt Q12809)
Experiment: primary screen, population patch clamp on CHO cells stably expressing hERG

Sequence of human ether-à-go-go-related gene (hERG) potassium channel (Q12809 whole entry, looked up): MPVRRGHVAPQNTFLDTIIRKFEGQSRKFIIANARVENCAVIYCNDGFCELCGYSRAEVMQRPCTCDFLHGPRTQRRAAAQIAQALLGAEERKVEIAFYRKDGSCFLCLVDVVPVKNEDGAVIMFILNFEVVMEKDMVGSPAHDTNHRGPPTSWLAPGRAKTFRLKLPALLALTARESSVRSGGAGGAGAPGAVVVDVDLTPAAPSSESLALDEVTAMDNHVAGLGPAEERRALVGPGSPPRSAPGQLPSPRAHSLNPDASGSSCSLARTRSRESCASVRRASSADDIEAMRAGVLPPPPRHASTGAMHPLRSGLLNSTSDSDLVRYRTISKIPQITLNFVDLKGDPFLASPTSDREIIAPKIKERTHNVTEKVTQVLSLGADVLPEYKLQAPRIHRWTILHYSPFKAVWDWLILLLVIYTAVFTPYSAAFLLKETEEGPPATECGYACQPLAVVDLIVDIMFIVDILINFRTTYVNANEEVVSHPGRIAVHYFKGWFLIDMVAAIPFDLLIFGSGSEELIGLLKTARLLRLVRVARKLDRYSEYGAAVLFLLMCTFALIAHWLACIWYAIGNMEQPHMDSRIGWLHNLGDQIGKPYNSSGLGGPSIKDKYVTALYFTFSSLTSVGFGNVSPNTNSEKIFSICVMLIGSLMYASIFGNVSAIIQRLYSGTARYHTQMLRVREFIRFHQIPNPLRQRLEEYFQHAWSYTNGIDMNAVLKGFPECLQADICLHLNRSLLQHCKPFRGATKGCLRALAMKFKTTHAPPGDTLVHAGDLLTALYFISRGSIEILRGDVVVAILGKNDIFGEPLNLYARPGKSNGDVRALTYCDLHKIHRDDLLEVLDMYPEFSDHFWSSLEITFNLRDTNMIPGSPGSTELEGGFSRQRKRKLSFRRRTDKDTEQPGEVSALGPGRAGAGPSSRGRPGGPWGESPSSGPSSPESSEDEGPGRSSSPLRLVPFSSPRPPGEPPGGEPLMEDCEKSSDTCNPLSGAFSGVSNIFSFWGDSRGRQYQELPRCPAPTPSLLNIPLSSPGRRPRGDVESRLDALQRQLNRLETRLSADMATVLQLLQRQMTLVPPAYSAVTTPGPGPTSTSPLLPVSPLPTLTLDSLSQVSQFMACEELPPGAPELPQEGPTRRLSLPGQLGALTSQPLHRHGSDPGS

Compared with `COc1cccc(CSc2nnc(-c3ccc(F)cc3)o2)c1`, `Cl.Nc1nonc1C(=O)NCCNCc1cc(Br)ccc1OCc1ccc(F)cc1` is lower in “hERG current change (%, negative = inhibition) at 1uM” value: 7.21% for the first, -6.57% for the second.

Going from `CCOC(=O)C1(Cc2cccc(OC)c2)CCN(C(C)COC)CC1` (centres unmarked) to `CCN1CCN(C(=O)Cc2c(C)n(C(=O)c3ccc(Cl)cc3)c3ccc(OC)cc23)CC1.Cl`, the “hERG current change (%, negative = inhibition) at 1uM” value falls from 10.9% to 9.01%.

Compared with `COc1cc(/C=C2/NC(=O)N(c3cccc(Cl)c3)C2=O)ccc1O`, `CCOc1ccc(C(=O)N/N=C/c2cc(Cl)ccc2[N+](=O)[O-])cc1` is lower in “hERG current change (%, negative = inhibition) at 1uM” value: 19.5% for the first, 6.42% for the second.

Compared with `COC(CNC(=O)Cn1nc(Cc2ccncc2)c2ccccc2c1=O)OC`, `Cc1nn(Cc2ccccc2)c(C)c1/C=N/NC(=O)c1cccnc1` is lower in “hERG current change (%, negative = inhibition) at 1uM” value: 14.1% for the first, 7.98% for the second.

Going from `Cc1cc(=O)oc2cc(OCC(=O)OCC(=O)Nc3ccccc3F)ccc12` to `CCN(CC(=O)Nc1cc(Cl)ccc1C)C(=O)CCOc1ccccc1C`, the “hERG current change (%, negative = inhibition) at 1uM” value rises from 4.34% to 10.6%.

Going from `CCOC(=O)C(=O)N/N=C/c1ccc(F)cc1` to `COC(=O)c1ccc(NC(=O)C[n+]2ccccc2)cc1.[Cl-]`, the “hERG current change (%, negative = inhibition) at 1uM” value rises from 11.3% to 11.6%.

Going from `O=C(CN1C(=O)C2C3CC(C(Br)C3Br)C2C1=O)N1CCOCC1` (centres unmarked) to `CCCCCCC1(C)NC(=O)N(C(C)C(=O)Nc2ccc(N3CCOCC3)cc2)C1=O` (centres unmarked), the “hERG current change (%, negative = inhibition) at 1uM” value falls from 10.1% to 7.82%.

First: Cc1ccc(CNC(=O)C2CC(c3ccc(C(F)(F)F)cc3)=NO2)o1 (centres unmarked)
Second: COc1ccc(S(=O)(=O)N2CCCC(C(=O)NCc3ccccn3)C2)cc1 (centres unmarked)
The “hERG current change (%, negative = inhibition) at 1uM” value of the first is higher: 9.59% for the first, 4.8% for the second.

Compared with `CSCC[C@H](NC(=O)OC(C)(C)C)C(=O)N1CCC(C(=O)N[C@H](C(=O)O)C(C)C)CC1`, `O=C(NC(Cc1ccccc1)C(=O)O)c1ccc(S(=O)(=O)N2CCOCC2)cc1` (centres unmarked) is lower in “hERG current change (%, negative = inhibition) at 1uM” value: 4% for the first, 3.41% for the second.

Compared with `CCCCCCCCC[n+]1cccc2c3ccccc3ccc21.[Br-]`, `O=c1[nH]c2ccccc2nc1Cc1ccccc1` is higher in “hERG current change (%, negative = inhibition) at 1uM” value: -91.7% for the first, 2.6% for the second.

Going from `O=C1CSC(=NC2CCCCC2)N1` to `Cc1ccc(C(=O)OCc2ccc3c(c2)OCO3)cc1S(=O)(=O)N1CCCCC1`, the “hERG current change (%, negative = inhibition) at 1uM” value falls from 13.5% to 6.4%.

Compared with `O=C(O)CC(CC(=O)Nc1ccccc1C(=O)O)c1ccccc1` (centres unmarked), `COCC(=O)NC(c1ccccc1)c1ccccc1` is lower in “hERG current change (%, negative = inhibition) at 1uM” value: 15.1% for the first, -8.16% for the second.

First: CCC1CCCCN1CCCNC(=O)CSc1nc2nc(C)c(Cc3ccc(C)cc3)c(C)n2n1 (centres unmarked)
Second: Cc1ccc(CSc2ccc(S(=O)(=O)N3CCOCC3)cn2)cc1
The “hERG current change (%, negative = inhibition) at 1uM” value of the first is lower: -3.76% for the first, 3.6% for the second.

First: Cn1nnnc1SCC(=O)NC1CCCc2ccccc21 (centres unmarked)
Second: CC(Sc1nnc(C2CC2)n1C1CC1)C(=O)c1ccc(F)cc1 (centres unmarked)
The “hERG current change (%, negative = inhibition) at 1uM” value of the first is higher: 11.4% for the first, 9.04% for the second.

First: O=C(CSCc1ccccc1)N1CCN(C(=O)c2ccco2)CC1
Second: Cc1c(C(=O)C(=O)N2CC=C(c3ccccc3)CC2)c2ccccc2n1C
The “hERG current change (%, negative = inhibition) at 1uM” value of the first is higher: 9.75% for the first, 7.1% for the second.

Compared with `CCc1nnc(NC(=O)c2cccc(S(=O)(=O)N3CCN(C(C)=O)CC3)c2)s1`, `CC(=O)Nc1ccc(S(=O)(=O)NC2=NCN(C)CN2)cc1` is higher in “hERG current change (%, negative = inhibition) at 1uM” value: 1.6% for the first, 11.3% for the second.

Compared with `CC1CN(S(=O)(=O)c2ccc(C(=O)NCCCn3ccnc3)cc2)CC(C)O1` (centres unmarked), `CCN(CC)S(=O)(=O)c1ccc(/C=C/C(=O)OCC(=O)NNC(=O)c2ccc(OC)cc2)cc1` is lower in “hERG current change (%, negative = inhibition) at 1uM” value: 11.7% for the first, 9.94% for the second.

Going from `COC(=O)c1sc2ccccc2c1NC(=O)c1cccs1` to `CSc1ncc(Cl)c(C(=O)Nc2cccc3ccccc23)n1`, the “hERG current change (%, negative = inhibition) at 1uM” value falls from 8.41% to 3.37%.

Going from `Cc1cc(F)ccc1S(=O)(=O)Nc1ccccc1C(=O)Nc1ncn[nH]1` to `N#C/C(=C\c1ccccc1[N+](=O)[O-])C(=O)Nc1ccc(S(N)(=O)=O)cc1`, the “hERG current change (%, negative = inhibition) at 1uM” value rises from 0.246% to 5.69%.

First: O=C(O)CCCNC(=O)OCc1ccccc1
Second: CC(=O)Nc1ccc(NC(=O)c2ccc(COc3ccccc3)cc2)cc1
The “hERG current change (%, negative = inhibition) at 1uM” value of the first is lower: 1.96% for the first, 19.1% for the second.

First: Fc1ccc(N=c2ssnc2Cl)c(F)c1
Second: O=C(COc1ccc([N+](=O)[O-])cc1Cl)NCC1CCCO1 (centres unmarked)
The “hERG current change (%, negative = inhibition) at 1uM” value of the first is higher: 19% for the first, -9.4% for the second.

First: COC(=O)c1ccc(CNCC(O)COc2ccc(-c3ccccc3)cc2)cc1 (centres unmarked)
Second: CC(NC=C1C(=O)OC(C)(C)OC1=O)C(=O)O (centres unmarked)
The “hERG current change (%, negative = inhibition) at 1uM” value of the first is higher: 14.3% for the first, 11.6% for the second.
